In PMC10726135 one finds binding signal (log2 normalized intensity) data, which are given here for 73 sequences.

The other results are listed elsewhere or left out. At the low end of the ranking the order means little. The protein was read in a cell extract, so binding may be indirect.

This experiment deals with T1, HNF4alpha8 (COS-7 nuclear extract) (UniProt P41235-5).
T1 sequence: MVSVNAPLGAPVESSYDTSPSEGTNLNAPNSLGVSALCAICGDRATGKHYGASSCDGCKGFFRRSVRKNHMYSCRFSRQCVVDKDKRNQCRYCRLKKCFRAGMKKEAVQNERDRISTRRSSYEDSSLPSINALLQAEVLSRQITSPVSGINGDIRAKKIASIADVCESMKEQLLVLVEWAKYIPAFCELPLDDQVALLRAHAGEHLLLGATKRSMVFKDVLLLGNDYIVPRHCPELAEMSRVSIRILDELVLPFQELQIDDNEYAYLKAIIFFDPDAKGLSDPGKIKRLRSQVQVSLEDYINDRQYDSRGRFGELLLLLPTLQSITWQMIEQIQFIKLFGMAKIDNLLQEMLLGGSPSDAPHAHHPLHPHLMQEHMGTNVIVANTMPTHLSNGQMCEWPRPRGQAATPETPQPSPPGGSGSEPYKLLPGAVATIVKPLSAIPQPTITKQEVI
The experiment in a line: protein-binding microarray. To be noted: COS-7 nuclear extract on double-stranded Agilent 4x180k PBM; binding buffer, salt, pH and temperature not given; high values mean tight binding; double strand, one strand shown; sequences stand for … in …GCCTAGGGAGATTAGAGTATCGGTCGA
GCCATCCAGGGCATTGCCGTTCAGGGCCAC: the binding signal (log2 normalized intensity) is -1.26.

Take GCCTGACTCCCTGACGCCATCTGGCGTCCC: the binding signal (log2 normalized intensity) is -1.24.

With GAATGCACCCTTTTGACCACACAGCAAGGC, the binding signal (log2 normalized intensity) is 0.472.

For the sequence CCTTTGGAGGGGAAGCTGGGCAGGCGCCGA, the binding signal (log2 normalized intensity) was -1.35.

Take GGATTAACCACAGAAATGCCGCTAATGTAT: the binding signal (log2 normalized intensity) is -1.38.

AGGAAGGACATGGTAAAGATGACCAGCGTG: the binding signal (log2 normalized intensity) is -1.08.

For TCCTAATGCCCAAATGAATAATCCCCTCCT, the binding signal (log2 normalized intensity) stood at 3.71.

Take ACAACTTTCATTGAACTGCTGGGGGTAAAG: the binding signal (log2 normalized intensity) amounted to 0.684.

CTTTAAACATTCTTCTCAGTGTTTTGGGTC: the binding signal (log2 normalized intensity) came to 1.98.

In the case of CTCTAAGCACGGCCAGGATTAACCACAGAA, the binding signal (log2 normalized intensity) was -1.3.

In the case of AACCTTCATCTCTCTTTGTTGACATCTGCT, the binding signal (log2 normalized intensity) is -0.0144.

Turning to GTGTGACCTTTGCCTTCTTGACATCTCTCT, the binding signal (log2 normalized intensity) was 5.21.

With AACCTTTGCTCCCTGGGAACCCCTCCAGCA, the binding signal (log2 normalized intensity) turned out to be 4.73.

Consider GTCAGACTTGCCACGGAATCCCAGTTCTGA, for which the binding signal (log2 normalized intensity) was -1.32.

GTGGGCAAGTTATCTCGGGGTGGCATGTAT: the binding signal (log2 normalized intensity) amounted to 1.04.

Turning to AAACTACTTTATATTCCTTTGTATCTGTAC, the binding signal (log2 normalized intensity) is 1.41.

For AGTGATATGGAGAGGAAAGATGGGGATATA, the binding signal (log2 normalized intensity) was -1.39.

Consider CAACCTCCACATTGCAACAATGTCCTTGAA, for which the binding signal (log2 normalized intensity) was 0.277.

In the case of TTCTTATTCTGTCACCAAAGCAAGCAGATG, the binding signal (log2 normalized intensity) is -1.28.

On to GTTATCTGCATTCCAGCTCAATCAAGGACT, for which the binding signal (log2 normalized intensity) is -1.27.

As to TTGCACCAAGGAGACACCCCTGCAGAAGCG, the binding signal (log2 normalized intensity) is -1.32.

ATCTCTGGCAAAGCTATTCACTTTTTGGCC: the binding signal (log2 normalized intensity) was determined as 0.906.

On to TTAATTTCTAACCAATGCAGCTGGGAGATA, for which the binding signal (log2 normalized intensity) was -0.517.

For the sequence ATTAAGTGCAGTGATCAATCAGCAGCAAAG, the binding signal (log2 normalized intensity) is -1.07.

Take CCTCCAGCTACTCACTCTTCCCAAATAGGT: the binding signal (log2 normalized intensity) was -0.273.

Turning to GTCTTTTCTCCCCCGATAAGGCTGCCTCCT, the binding signal (log2 normalized intensity) was 3.7.

Take TACACTTGGAGAAAAAAAACCATTGCAAAT: the binding signal (log2 normalized intensity) is -1.33.

Consider ATTGAGGCAGCCAGCGCAGGGGCTTCTGCT, for which the binding signal (log2 normalized intensity) was -1.21.

In the case of CAACCTTATCAGCAGGACACCAAACAGACC, the binding signal (log2 normalized intensity) is -1.29.

For TGAGTAGTGTACGTTGTACCCCACAGGTAT, the binding signal (log2 normalized intensity) came to 3.39.

For the sequence TGCAGAGTCACACACACCTGTGTCCCCCAG, the binding signal (log2 normalized intensity) came to 3.39.

Regarding GGATAGCGCGTGGCCCAAGGCCTCTGACAT, the binding signal (log2 normalized intensity) is -1.16.

As to TGCCTCTTTTCTGCTTTTGGAATTTGACCT, the binding signal (log2 normalized intensity) is 8.78.

As to GGGCTGGAACACAAAGAAAGCCAAAGTTCA, the binding signal (log2 normalized intensity) amounted to 2.9.

In the case of CCCACACCTCCCCTTTGTTTAACTTACTAT, the binding signal (log2 normalized intensity) was found to be 1.43.

Regarding GTGACATACTGCCTTTCTAGAACCAGAATT, the binding signal (log2 normalized intensity) was -1.36.

GGTGGGAAAAGAAATGTAGTGACAGAAGGG: the binding signal (log2 normalized intensity) was -1.29.

Consider ACAGTGCCTATGTTGGAATGCCTAAAGTAG, for which the binding signal (log2 normalized intensity) was -1.15.

In the case of GTCGCTGTGATGTTTGTAAACTGTCATGGT, the binding signal (log2 normalized intensity) was determined as 1.54.

For TTCTGGGGACTTCGGTCTTTTTTCTGAAGA, the binding signal (log2 normalized intensity) worked out at 1.28.

GATGTTCGTTTGGATCGCTTGGCTCAGGCC: the binding signal (log2 normalized intensity) was -1.32.

CTGTTTGAGGGTAAAGATCTTGAGGCCCAC: the binding signal (log2 normalized intensity) was -0.0412.

As to GGGGAGAGTTTAAGGTTGTACTTTGGAGTT, the binding signal (log2 normalized intensity) worked out at 5.33.

TGATAAACACTTGCCTACTTTATGGTAAAC: the binding signal (log2 normalized intensity) was -1.18.

Take TAATTAAGACCAAACTGCTGAAGATAAGAC: the binding signal (log2 normalized intensity) was -1.35.

As to GGAAGGAAAAGAGGAAAACCAGCTCAGTGG, the binding signal (log2 normalized intensity) was -1.38.

For the sequence GGAGCAGAGCGATCAAAGGTCACAGAGACC, the binding signal (log2 normalized intensity) worked out at 6.2.

For the sequence GAATGCCTAAAGTAGGTCTTAAATAATTAA, the binding signal (log2 normalized intensity) is -1.2.

On to CAAATACCTCCAAGAGGTTTTAGGCTATCA, for which the binding signal (log2 normalized intensity) is -1.33.

On to TGTTTGCGCAAACTATCTAAACAGACTAGT, for which the binding signal (log2 normalized intensity) was -1.09.

Consider ATACATTTGCCTGAACTTTAAACTGGTGTG, for which the binding signal (log2 normalized intensity) worked out at 3.38.

As for CTGCCCTTTGGAACCTGCCCTCTGTCCCAT, the binding signal (log2 normalized intensity) turned out to be 4.63.

As for ACAAAGATCATAAATGCCTCCCCCTCTTTA, the binding signal (log2 normalized intensity) worked out at 3.85.

As to TGGGAACCCCAAGTTATCTTGAGACCTCAA, the binding signal (log2 normalized intensity) worked out at 0.616.

On to TGGGCTGGGACTCATTTATGGAGGAATTTG, for which the binding signal (log2 normalized intensity) is 0.0801.

Take AGATACTGAATCTCCCAGTGCTTTGATCTT: the binding signal (log2 normalized intensity) was 1.39.

With CAGATCCAGTGGACTCTCTGTTTGATCAGC, the binding signal (log2 normalized intensity) worked out at 2.28.

As to TAAGACAGACCCAAAGGTTAAGGAAACAAG, the binding signal (log2 normalized intensity) is -1.2.

AAGTCCATCTGTATTGCCTCCTTTGTAGGC: the binding signal (log2 normalized intensity) stood at 1.7.

AACATATACTTTATTAGGGTGAAAAATTAG: the binding signal (log2 normalized intensity) was -0.0218.

TTTTGTACTTCCTTCACTCTGGGGCAATAA: the binding signal (log2 normalized intensity) was 1.53.

Regarding TTGATGAGTCTTAGAGTCCAGACACAAAGA, the binding signal (log2 normalized intensity) was found to be 0.55.

On to ATTAACCTTTGTACCAAAATCACACTGGGA, for which the binding signal (log2 normalized intensity) was 3.75.

For ATTCCTCTATCTCCCTGTGACCTCCAACTA, the binding signal (log2 normalized intensity) was found to be 3.13.

Turning to CTTTGGTAGGCTGTATGGCTGCACAGGGCT, the binding signal (log2 normalized intensity) was -1.38.

For the sequence GAATTCTTGACTTTGGACTTTCAAAAGTTA, the binding signal (log2 normalized intensity) came to 5.14.

ACCCAATACCCAGAGTGATCTTTGAAACAT: the binding signal (log2 normalized intensity) is 3.55.

With GTCTTAGGGACTAAGCTTGTAGACCAAGGA, the binding signal (log2 normalized intensity) is -0.97.

Take TTGAGTCCTTCATGGCTACCCTTCATCTTC: the binding signal (log2 normalized intensity) came to 0.864.

Consider GCAATGTGGACTTTGTCCTGTGGGCTGTAA, for which the binding signal (log2 normalized intensity) was determined as 8.03.

On to CGCAGACCCAGTCTTAGGGACTAAGCTTGT, for which the binding signal (log2 normalized intensity) was -1.29.

With GAGTTATCTCTTGACTCTTCCCATCTAACT, the binding signal (log2 normalized intensity) is -1.11.

Regarding GGACATTGGCTGATAAAACAAATCTACAAA, the binding signal (log2 normalized intensity) is -1.1.
